Data: the supplement of paper PMC10369915
This is one part of the list. Rule as the data show it: active = 3.2 or more and inactive = the rest. Most of these values are background signal.

Experiments:
Test in all cases: enrichment score (SH2-bound / input frequency) (ratio); bacterial display of known human phosphotyrosine sites (pTyr-Var adds point mutants) read by sequencing; higher = stronger binding; tyrosines were phosphorylated by kinases first
Details in all cases: peptide library: pTyr-Var
SHP2 C-SH2 domain E139D = target: SHP2 C-SH2 domain E139D
[1] = target: SHP2 C-SH2 domain wild-type
SHP2 N-SH2 domain L43F = target: SHP2 N-SH2 domain L43F
SHP2 N-SH2 domain T42A = target: SHP2 N-SH2 domain T42A
SHP2 N-SH2 domain T52S = target: SHP2 N-SH2 domain T52S
[2] = target: SHP2 N-SH2 domain wild-type

Measured: enrichment score
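Also: displayed peptides selected on beads carrying the immobilized SH2 domain, with library peptides lacking any tyrosine serving as negative controls.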

TEDAEYDVQSK [PTCHD3_Y335_P333A]
inactive: SHP2 C-SH2 domain E139D 0.497 | [1] 0.42 | SHP2 N-SH2 domain L43F 0.484 | SHP2 N-SH2 domain T42A 0.536 | SHP2 N-SH2 domain T52S 0.571 | [2] 0.488

PVDNLYAEPAV [PRPS1_Y146]
inactive: SHP2 C-SH2 domain E139D 0.586 | [1] 0.637 | SHP2 N-SH2 domain L43F 0.657 | SHP2 N-SH2 domain T42A 0.454 | SHP2 N-SH2 domain T52S 0.767 | [2] 0.687

QLCVSYPGGFT [PROS1_Y259_N258S_YF]
inactive: SHP2 C-SH2 domain E139D 0.81 | [1] 1.37 | SHP2 N-SH2 domain L43F 0.935 | SHP2 N-SH2 domain T42A 0.726 | SHP2 N-SH2 domain T52S 0.991 | [2] 1.15

ECKASCPGKIT [PRSS3_Y232_Y232C]
inactive: SHP2 C-SH2 domain E139D 0.769 | [1] 0.753 | SHP2 N-SH2 domain L43F 0.792 | SHP2 N-SH2 domain T42A 0.691 | SHP2 N-SH2 domain T52S 0.965 | [2] 0.767

LRWREYQRQDF [PRKRIP1_Y90_R87W_YF]
inactive: SHP2 C-SH2 domain E139D 2.74 | [1] 2.38 | SHP2 N-SH2 domain L43F 2.81 | SHP2 N-SH2 domain T42A 2.4 | SHP2 N-SH2 domain T52S 2.88 | [2] 2.42

LVLIKYLPEWT [PSEN1_Y240_F237L]
active: SHP2 C-SH2 domain E139D 3.95 | [1] 3.35 | SHP2 N-SH2 domain L43F 3.65 | SHP2 N-SH2 domain T42A 3.41 | SHP2 N-SH2 domain T52S 3.68 | [2] 3.76

SASWTYVRWFD [PTDSS1_Y274_P269S]
inactive: SHP2 C-SH2 domain E139D 1.97 | [1] 1.8 | SHP2 N-SH2 domain L43F 1.65 | SHP2 N-SH2 domain T42A 1.68 | SHP2 N-SH2 domain T52S 1.92 | [2] 2.02

WISNRSLDFSS [PRPH2_Y184_Y184S]
inactive: SHP2 C-SH2 domain E139D 1.04 | [1] 1.01 | SHP2 N-SH2 domain L43F 1.03 | SHP2 N-SH2 domain T42A 1.23 | SHP2 N-SH2 domain T52S 0.935 | [2] 1.13

VMIFAYLLHRG [PTEN_Y138_C136Y_YF]
inactive: SHP2 C-SH2 domain E139D 1.85 | [1] 1.67 | SHP2 N-SH2 domain L43F 1.79 | SHP2 N-SH2 domain T42A 1.52 | SHP2 N-SH2 domain T52S 1.89 | [2] 2

AKKIKYFEGVS [PRKDC_Y682]
inactive: SHP2 C-SH2 domain E139D 0.974 | [1] 0.863 | SHP2 N-SH2 domain L43F 0.912 | SHP2 N-SH2 domain T42A 0.605 | SHP2 N-SH2 domain T52S 0.616 | [2] 0.951

PDDPNYSLVDD [PSTPIP2_Y323]
inactive: SHP2 C-SH2 domain E139D 0.59 | [1] 0.551 | SHP2 N-SH2 domain L43F 0.518 | SHP2 N-SH2 domain T42A 0.357 | SHP2 N-SH2 domain T52S 0.463 | [2] 0.49

LRWREYQRQDY [PRKRIP1_Y90_R87W]
inactive: SHP2 C-SH2 domain E139D 2.31 | [1] 1.89 | SHP2 N-SH2 domain L43F 1.82 | SHP2 N-SH2 domain T42A 1.6 | SHP2 N-SH2 domain T52S 2.35 | [2] 1.59

PKAWNYELPAT [PROM1_Y34]
inactive: SHP2 C-SH2 domain E139D 0.929 | [1] 0.899 | SHP2 N-SH2 domain L43F 0.642 | SHP2 N-SH2 domain T42A 0.965 | SHP2 N-SH2 domain T52S 0.793 | [2] 1.08

LLVVLNKYRCY [PSEN1_Y154_Y154N]
inactive: SHP2 C-SH2 domain E139D 1.36 | [1] 1.61 | SHP2 N-SH2 domain L43F 1.04 | SHP2 N-SH2 domain T42A 1.12 | SHP2 N-SH2 domain T52S 1.34 | [2] 1.24

SENYTYIWWLN [PSG4_Y271_K267E]
inactive: SHP2 C-SH2 domain E139D 0.513 | [1] 0.679 | SHP2 N-SH2 domain L43F 0.706 | SHP2 N-SH2 domain T42A 0.529 | SHP2 N-SH2 domain T52S 0.577 | [2] 0.731

GGYTCYCDGKK [PROS1_Y266]
inactive: SHP2 C-SH2 domain E139D 0.784 | [1] 1.1 | SHP2 N-SH2 domain L43F 0.839 | SHP2 N-SH2 domain T42A 0.822 | SHP2 N-SH2 domain T52S 0.737 | [2] 1.24

LLVVLYKYRCF [PSEN1_Y154_Y159F]
active: SHP2 C-SH2 domain E139D 3.75 | [1] 3.88 | SHP2 N-SH2 domain T52S 3.48
inactive: SHP2 N-SH2 domain L43F 3.2 | SHP2 N-SH2 domain T42A 2.78 | [2] 2.73

FENGEYIVRQG [PRKG1_Y247_I249V_YF]
inactive: SHP2 C-SH2 domain E139D 0.754 | [1] 0.633 | SHP2 N-SH2 domain L43F 0.909 | SHP2 N-SH2 domain T42A 0.589 | SHP2 N-SH2 domain T52S 0.617 | [2] 0.724
